# Laboratory results published in the supplement of paper PMC11417369.
# ± gives the standard deviation of the averaged measurements. The list shows a part of the results.
# System: PfAP2-EXP AP2 domain (GST-tagged)
# Assay: gcPBM binding intensity (ln(normalized median fluorescence intensity)); higher = stronger DNA binding
# Summary of the method: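 The highest Masliner-normalised natural-log median intensity across replicate spots of either probe orientation is reported as binding intensity. GST-tagged P. falciparum DNA-binding domains expressed in E. coli were applied for 1 h to an Agilent 4 × 180k array of primer-extended double-stranded 36-bp intergenic genomic probes plus negative controls, and bound protein was detected with Alexa488 anti-GST antibody and scanned at 488 nm.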
row,Sequence,gcPBM binding intensity (ln)
1,TTTTAAAGAAAATATTTTATCATTATTTTTTGTACT [CACACA_negctrl_site1648],8.32 ± 0.37
2,TCTTATTTTTTTATATATACAAAGTTTTATATATAT [GTGCAC_negctrl_site314],8.69 ± 0.35
3,ATAGTAAATATAAAAAGTACTGATTCTTAAATTGTT [XGTACX_site5972],8.6 ± 0.46
4,GTTCAATCGGGTGTTACTTCAAACAAGGAACAACAA [TGCATGCA_negctrl_site471],8.61 ± 0.5
5,ACTTGACACCAACACACACACATATATAAAAAAAAA [CACACA_site756],8.55 ± 0.33
6,TATTTTATTGTTGTTATACACACCATATAAAATATT [CACACA_site1630],8.57 ± 0.41
7,AAAAAAAAAAAAAAAGTGCACTGAAAATATATTGAA [GTGCAC_site9395],9.04 ± 0.2
8,TTTTTAATTATTTATATAACGATAATCCTTACATAA [TGCATGCA_negctrl_site180],8.14 ± 0.41
9,AACAAAAATGAAAAAACACACATAACATATATAAAT [CACACA_site740],8.79 ± 0.5
10,ATAATATAAATAAAAACACACACAATCGTACATATA [CACACA_site9223],8.87 ± 0.46
11,TATATAGAAAACAAGGCATGCAAATAACAAATTGTG [TGCATGCA_site473],9.85 ± 0.36
12,ATATATTGATATATGTGTACATAGCTTATTTCATTT [XGTACX_site1800],8.59 ± 0.25
13,ATATAATATATGTAAGTGCGCTTATAAATAAAACGA [GTGCAC_site9841],8.73 ± 0.4
14,AATAGAACAAATAAAACACACACATATATATATATA [CACACA_site8893],10.1 ± 0.34
15,AAAAAAAAAAAAAAGACACACAATGTGAAATAATAA [CACACA_site804],8.4 ± 0.56
16,AATATATTTCGAGATACACACATATATAAAAAAAAA [CACACA_site3398],8.52 ± 0.48
17,ATATATCACAATAAAATTTATAGAATTTTAAATAAG [TGCATGCA_negctrl_site437],8.41 ± 0.16
18,CAATAAAGAGGGAATTGTACTTTAAATATCCCTCTT [XGTACX_site1991],8.37 ± 0.38
19,AAAATAAAATAAAATACACACATACATACATACAAA [CACACA_site5366],8.72 ± 0.57
20,TTATATATTTTTACCATACACACATATAATAAATAT [CACACA_site3721],8.56 ± 0.35
21,ATCATAAAAGTATACACACATACATACATATGTACA [CACACA_site2641],8.65 ± 0.38
22,ATAAAGATTTTCCAAGCATGCCACATAGTGAGATAC [TGCATGCA_site594],9.14 ± 0.4

row,Sequence,gcPBM binding intensity (ln)
1,TATATATATATTATATGTACATATTCCTATATATAC [XGTACX_site7071],9.51 ± 0.17
2,TAAATATATATATATGTACACACTCCAATACATATA [CACACA_site8858],8.52 ± 0.36
3,ACTTTATATTTTGAACGTACAAAAAAAAAATTATGT [XGTACX_site5588],8.61 ± 0.45
4,AACCATTAATTCTCTACACACTTTTATTTTATTTAG [CACACA_site1769],8.72 ± 0.45
5,GCACATATATACATACATACATACATACATATGTAT [TGCATGCA_negctrl_site95],8.77 ± 0.53
6,TTGGTTATACAACACATGCACACGTAAATAAATATT [CACACA_site3841],8.96 ± 0.33
7,AAGTATGCATTATATACACACATACATTTATATATT [CACACA_site4242],8.54 ± 0.33
8,TATATATAAAGAGAAACATGCAAAATGTGAATATTC [TGCATGCA_site377],9.2 ± 0.4
9,ATTATGTTAAAAAGGCGTACATGTTATAAGGTCCTA [XGTACX_site344],8.73 ± 0.41
10,TCCTTATAAATATATATATAATATATATATATATAT [CACACA_negctrl_site293],9.54 ± 0.29
11,TATATATATATTTATACACACATTAGTGTAGACATG [CACACA_site8964],9.45 ± 0.22
12,TTGTTCTAATATATTGCACACGTAAAAATATAGGTA [CACACA_site8195],8.8 ± 0.13
13,ATATAATATATATGGTGTACATTTTTTAGTGCTATT [XGTACX_site1662],8.62 ± 0.29
14,AAAAAGTGACTCCTTACACACTTTACATAATTTAGT [CACACA_site4606],8.44 ± 0.38
15,TAAAAGAATAAAAGTAGTACTTTTTTTTATATTAGA [XGTACX_site368],8.125 ± 0.007
16,ATATTTTTATATTAGTGTACTTATTATAATGTATAG [XGTACX_site8185],8.45 ± 0.26
17,TCTTTTTTTTTTTATTGTACAAGAAAAGGAAAAAAT [XGTACX_site3717],8.59 ± 0.12
18,ATAATATGTAATATTACACACAATTCATCATTTTTT [CACACA_site3159],8.34 ± 0.4
19,ATATACACCGTTGAATGTACATAAATAATATTAATA [XGTACX_site2893],8.92 ± 0.28
20,AAGTATTATTTTTATGCATGTGAAGTGCAAAATAAA [TGCATGCA_site198],8.605 ± 0.049
21,AGTACATTTTTTTTAATAGGAAAAAAAATATTTATT [TGCATGCA_negctrl_site575],8.29 ± 0.42
22,TTTAAAAAAATGAAATAAAAAAAAAATAAAATAAAA [XGTACX_negctrl_site316],8.36 ± 0.54
